Results taken from PubChem BioAssay (NCI).
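Protocol summary: plate cells (96-well), add compound at 5 concentrations, incubate 48 h, interpolate endpoints linearly. GI50 = concentration required for 50% inhibition of growth. TGI: total growth inhibition.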

Tested on: NCI-H322M lung
Assay: NCI tumour cell line growth inhibition, 48 h

Compound | GI50 [µM] | TGI [µM]
C/C(=C(\c1ccc(O)cc1)c1ccc(OCCN2CCCCCC2)cc1)c1ccc(Cl)cc1 | 6.03 | 11.8
C#C[C@]1(O)CC[C@H]2[C@@H]3CC=C4c5sc(Nc6cccc(F)c6)nc5CC[C@]4(C)[C@H]3CC[C@@]21C | 4.6 | 21.3
